Source: the supplement of paper PMC8728848
This is one part of the list.

Legend:
Assay in all cases: glycan array binding signal (z-score within array); higher = stronger binding
Conditions in all cases: glycan notation: IUPAC condensed, linker removed; mutation: R82H, R255H
GlcNAc(b1-3)GalNAc = molecular target: GlcNAc(b1-3)GalNAc
How it was run: (§1)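 From the Consortium for Functional Glycomics database, 3228 arrays were curated, keeping only those whose protein sequence was available. Binding is given as a within-array Z-score averaged across arrays sharing a protein sequence and across linkers. Negative Z-scores can be read as non-binding.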

GlcNAc(b1-3)Man = molecular target: GlcNAc(b1-3)Man
How it was run: as §1

[1] = molecular target: GlcNAc(b1-3)[GlcNAc(b1-4)][GlcNAc(b1-6)]GlcNAc
How it was run: as §1

[2] = molecular target: GlcNAc(b1-3)[GlcNAc(b1-6)]Gal(b1-4)GlcNAc
How it was run: as §1

[3] = molecular target: GlcNAc(b1-3)[GlcNAc(b1-6)]GalNAc
How it was run: as §1

[4] = molecular target: GlcNAc(b1-4)Gal(b1-4)GlcNAc
How it was run: as §1

GlcNAc(b1-4)GlcNAc = molecular target: GlcNAc(b1-4)GlcNAc
How it was run: as §1

[5] = molecular target: GlcNAc(b1-4)GlcNAc(b1-4)GlcNAc
How it was run: as §1

[6] = molecular target: GlcNAc(b1-4)GlcNAc(b1-4)GlcNAc(b1-4)GlcNAc(b1-4)GlcNAc
How it was run: as §1

[7] = molecular target: GlcNAc(b1-4)GlcNAc(b1-4)GlcNAc(b1-4)GlcNAc(b1-4)GlcNAc(b1-4)GlcNAc
How it was run: as §1

[8] = molecular target: GlcNAc(b1-4)[GlcNAc(b1-6)]GalNAc
How it was run: as §1

[9] = molecular target: GlcNAc(b1-6)Gal(b1-4)GlcNAc
How it was run: as §1

GlcNAc(b1-6)GalNAc = molecular target: GlcNAc(b1-6)GalNAc
How it was run: as §1

[10] = molecular target: GlcNAc6S(b1-3)Gal(b1-4)GlcNAc
How it was run: as §1

Kdn(a2-3)Gal(b1-3)GalNAc = molecular target: Kdn(a2-3)Gal(b1-3)GalNAc
How it was run: as §1

Kdn(a2-3)Gal(b1-3)GlcNAc = molecular target: Kdn(a2-3)Gal(b1-3)GlcNAc
How it was run: as §1

Kdn(a2-3)Gal(b1-4)Glc = molecular target: Kdn(a2-3)Gal(b1-4)Glc
How it was run: as §1

Kdn(a2-3)Gal(b1-4)GlcNAc = molecular target: Kdn(a2-3)Gal(b1-4)GlcNAc
How it was run: as §1

[11] = molecular target: Kdn(a2-3)Gal(b1-4)[Fuc(a1-3)]GlcNAc
How it was run: as §1

Kdn(a2-6)Gal(b1-4)GlcNAc = molecular target: Kdn(a2-6)Gal(b1-4)GlcNAc
How it was run: as §1

[12] = molecular target: Man(a1-2)Man(a1-2)Man(a1-3)Man
How it was run: as §1

[13] = molecular target: Man(a1-2)Man(a1-2)Man(a1-6)[Man(a1-3)]Man
How it was run: as §1

Man(a1-2)Man(a1-3)Man = molecular target: Man(a1-2)Man(a1-3)Man
How it was run: as §1

[14] = molecular target: Man(a1-2)Man(a1-3)[Man(a1-2)Man(a1-6)]Man
How it was run: as §1

[15] = molecular target: Man(a1-2)Man(a1-3)[Man(a1-2)Man(a1-6)]Man(a1-6)[Man(a1-2)Man(a1-2)Man(a1-3)]Man
How it was run: as §1

[16] = molecular target: Man(a1-2)Man(a1-3)[Man(a1-2)Man(a1-6)]Man(a1-6)[Man(a1-2)Man(a1-2)Man(a1-3)]Man(b1-4)GlcNAc(b1-4)GlcNAc
How it was run: as §1

[17] = molecular target: Man(a1-2)Man(a1-3)[Man(a1-6)]Man(a1-6)[Man(a1-2)Man(a1-3)]Man(b1-4)GlcNAc(b1-4)GlcNAc
How it was run: as §1

[18] = molecular target: Man(a1-2)Man(a1-6)[Man(a1-3)]Man(a1-6)[Man(a1-2)Man(a1-2)Man(a1-3)]Man
How it was run: as §1

[19] = molecular target: Man(a1-2)Man(a1-6)[Man(a1-3)]Man(a1-6)[Man(a1-2)Man(a1-2)Man(a1-3)]Man(b1-4)GlcNAc(b1-4)GlcNAc
How it was run: as §1

Man(a1-3)[Man(a1-6)]Man = molecular target: Man(a1-3)[Man(a1-6)]Man
How it was run: as §1

[20] = molecular target: Man(a1-3)[Man(a1-6)]Man(a1-6)[Man(a1-2)Man(a1-3)]Man(b1-4)GlcNAc(b1-4)GlcNAc
How it was run: as §1

[21] = molecular target: Man(a1-3)[Man(a1-6)]Man(a1-6)[Man(a1-3)]Man
How it was run: as §1

[22] = molecular target: Man(a1-3)[Man(a1-6)]Man(a1-6)[Man(a1-3)]Man(b1-4)GlcNAc(b1-4)GlcNAc
How it was run: as §1

[23] = molecular target: Man(a1-3)[Man(a1-6)]Man(b1-4)GlcNAc(b1-4)GlcNAc
How it was run: as §1

[24] = molecular target: Man(a1-3)[Man(a1-6)]Man(b1-4)GlcNAc(b1-4)[Fuc(a1-6)]GlcNAc
How it was run: as §1

Man(a1-6)Man = molecular target: Man(a1-6)Man
How it was run: as §1

Man(b1-4)GlcNAc = molecular target: Man(b1-4)GlcNAc
How it was run: as §1

MurNAc(b1-4)GlcNAc = molecular target: MurNAc(b1-4)GlcNAc
How it was run: as §1

B1: Gal 8 (Mus musculus), Q9JL15 (protein)
chain: MGGSHHHHHHGMASMLSLNNLQNIIYNPIIPYVGTITEQLKPGSLIVIRGHVPKDSERFQVDFQLGNSLKPRADVAFHFNPHFKRSSCIVCNTLTQEKWGWEEITYDMPFRKEKSFEIVFMVLKNKFQVAVNGRHVLLYAHRISPEQIDTVGIYGKVNIHSIGFRFSSASALPHTLGDLQSMETSALGLTQINRENIQKPGKLQLSLPFEARLNASMGPGRTVVIKGEVNTNARSFNVDLVAGKTRDIALHLNPHLNVKAFVRNSFLQDAWGEEERNITCFPFSSGMYFEMIIYCDVREFKVAINGVHSLEYKHRFKDLSSIDTLSVDGDIRLLDVRSW
glycan array binding signal (z-score) (GlcNAc(b1-3)GalNAc): -0.213 | glycan array binding signal (z-score) (GlcNAc(b1-3)Man): -0.209 | glycan array binding signal (z-score) [1]: -0.281 | glycan array binding signal (z-score) [2]: -0.252 | glycan array binding signal (z-score) [3]: -0.268 | glycan array binding signal (z-score) [4]: -0.209 | glycan array binding signal (z-score) (GlcNAc(b1-4)GlcNAc): -0.233 | glycan array binding signal (z-score) [5]: -0.255 | glycan array binding signal (z-score) [6]: -0.232 | glycan array binding signal (z-score) [7]: -0.175 | glycan array binding signal (z-score) [8]: -0.278 | glycan array binding signal (z-score) [9]: -0.251 | glycan array binding signal (z-score) (GlcNAc(b1-6)GalNAc): -0.121 | glycan array binding signal (z-score) [10]: -0.263 | glycan array binding signal (z-score) (Kdn(a2-3)Gal(b1-3)GalNAc): -0.189 | glycan array binding signal (z-score) (Kdn(a2-3)Gal(b1-3)GlcNAc): -0.24 | glycan array binding signal (z-score) (Kdn(a2-3)Gal(b1-4)Glc): -0.036 | glycan array binding signal (z-score) (Kdn(a2-3)Gal(b1-4)GlcNAc): -0.25 | glycan array binding signal (z-score) [11]: 0.815 | glycan array binding signal (z-score) (Kdn(a2-6)Gal(b1-4)GlcNAc): -0.259 | glycan array binding signal (z-score) [12]: -0.264 | glycan array binding signal (z-score) [13]: 0.015 | glycan array binding signal (z-score) (Man(a1-2)Man(a1-3)Man): -0.259 | glycan array binding signal (z-score) [14]: -0.239 | glycan array binding signal (z-score) [15]: -0.287 | glycan array binding signal (z-score) [16]: 0.01 | glycan array binding signal (z-score) [17]: -0.26 | glycan array binding signal (z-score) [18]: -0.276 | glycan array binding signal (z-score) [19]: -0.167 | glycan array binding signal (z-score) (Man(a1-3)[Man(a1-6)]Man): -0.24 | glycan array binding signal (z-score) [20]: -0.246 | glycan array binding signal (z-score) [21]: -0.238 | glycan array binding signal (z-score) [22]: -0.24 | glycan array binding signal (z-score) [23]: -0.249 | glycan array binding signal (z-score) [24]: -0.198 | glycan array binding signal (z-score) (Man(a1-6)Man): -0.128 | glycan array binding signal (z-score) (Man(b1-4)GlcNAc): -0.229 | glycan array binding signal (z-score) (MurNAc(b1-4)GlcNAc): -0.27
